# From PubChem BioAssay AID493208 (National Center for Advancing Translational Sciences (NCATS), 2011)
# Hit rate of the full screen: of about 44,000 compounds, about 340 (0.77%) were called active. Roughly 5% stayed inconclusive and do not appear here. Calls come from the whole dose curve; as a rule, active = well fitted inhibition curve with a large enough effect; inconclusive = small, poorly fitted or top-dose-only effect; inactive = flat fitted curve, though single readings scatter. The list shows a part of the results.
# Assay: Acumen qHTS Assay for Inhibitors of the mTORC1 Signaling Pathway in MEF (Tsc2-/-, p53-/-) Cells: Sytravon;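 note: plate controls were DMSO for no effect and rapamycin for full effect; nearly all actives have a fitted effect of over 50% in size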
# Conditions: phospho-rpS6 immunofluorescence/PI, 24 h; series mostly up to 38.3 µM; activity change, negative = inhibition: at the top concentration
# How it was run: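 Cell-based qHTS: Tsc2-/- p53-/- MEF, 24 h cpd, 37 °C; fix/perm, anti-phospho-S6 Alexa-488 + PI; Acumen 488 nm scan; pS6/PI ratio, % positive cells; rapamycin 7.5 nM = inhibition ref; PI count = viability.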
row,Structure (SMILES),"activity change, negative = inhibition"
1,COc1ccc(OCC(=O)N(Cc2sccc2C)C2CCS(=O)(=O)C2)cc1 (stereo not given),inactive: 3.93%
2,CCN(CC)C(=O)Cn1c(=O)n(Cc2ccc(C(=O)NCCCOC)cc2)c(=O)c2ccccc21,inactive: -13.6%
3,O=C(Nc1ccc(F)cc1F)c1cc(S(=O)(=O)N2CCCCC2)c[nH]1,inactive: -10.5%
4,CCn1c2c(c(=O)n3ncc(C(=O)N4CCN(c5ccc(C(C)=O)cc5)CC4)c13)CN(Cc1ccc(OC)cc1)CC2,inactive: 1.9%
5,Cc1ccc(C)c(N2C(=O)N(Cc3cccc(C(F)(F)F)c3)c3ccccc3S2(=O)=O)c1,inactive: -0.42%
6,Cc1ccc(C)c(NC(=O)N2CCN3CCCCC3C2)c1 (stereo not given),inactive: 1.82%
7,COc1ccc(F)cc1S(=O)(=O)Nc1ccc2c(c1)CCCN2C(=O)c1cccs1,inactive: 0%
8,COc1ccc(C(=O)CCC(=O)Nc2ccc(F)cc2F)cc1,inactive: -8.71%
9,COC(=O)c1sccc1S(=O)(=O)N(CC(=O)NCc1ccc(C)cc1)c1ccc(C)c(C)c1,inactive: -2.96%
10,CCOC(=O)CSc1nc2cc(OC)c(OC)cc2c2nc(-c3ccccc3)nn12,inactive: -7.28%
11,CC(=O)c1c(C)oc2c1cc(NS(=O)(=O)c1c(C)cc(C)cc1C)c1ccccc12,inactive: 1.75%
12,Cc1cc(NC(=O)c2cc(Cl)ccc2Cl)ccc1-c1cc2ccccc2oc1=O,inactive: 19.3%
13,CCOC(=O)C1=C(C)N=C2SCCC(=O)N2C1c1ccc(OCc2ccccc2)c(OC)c1 (stereo not given),inactive: 3.37%
14,NS(=O)(=O)c1ccc(NC(=O)COc2ccc(S(=O)(=O)NC3CCCCC3)cc2)cc1,inactive: -9.65%
15,COc1cccc(-n2nnc(-c3nc(-c4cccs4)no3)c2N)c1,inactive: -3.08%
16,COc1ccc(NS(=O)(=O)c2ccc3[nH]c(=O)ccc3c2)cc1OC,inactive: -16.1%
17,CCOc1ccc(S(=O)(=O)Nc2cccc(OC)c2)c2cccnc12,inactive: -23.1%
18,O=C1CS(=O)(=O)C2(C(=O)N(Cc3ccccc3)c3ccccc32)N1c1ccc(F)c(Cl)c1 (stereo not given),inactive: 0%
19,COc1ccc(S(=O)(=O)N(CC(=O)Nc2ccccc2Cl)Cc2ccccc2)cc1,inactive: 1.8%
20,CN1C(=O)c2ccccc2Sc2ccc(NC(=O)NCc3ccc(Cl)cc3)cc21,inactive: -28.1%
21,Cc1ccc(CCNC(=O)CN2C(=O)COc3ccc(S(=O)(=O)N4CCCCCC4)cc32)cc1,inactive: -7.48%
22,O=C(Nc1cccc(Cl)c1)c1cc(-c2ccc3c(c2)OCO3)on1,inactive: 2.07%
23,COc1cc(OC)cc(C(=O)Nc2ccc3nc4n(c(=O)c3c2)CCCCC4)c1,inactive: 4.33%
24,COc1ccccc1C(=O)Oc1c(Sc2ccccc2)c(C)nn1-c1ccccc1,inactive: 3.17%

row,Structure (SMILES),"activity change, negative = inhibition"
1,O=C(Nc1cc(-c2ccc(Cl)cc2)no1)c1ccc(F)cc1,inactive: -4%
2,CCCSCCCNC(=O)CN1C(=O)COc2ccc(S(=O)(=O)N3CCCC3)cc21,inactive: -13.5%
3,Cc1ccc(C)c(N2CCN(C(=O)c3ccc4c(=O)n(CCc5ccccc5)c(=O)[nH]c4c3)CC2)c1,inactive: -7.1%
4,COCCc1nn2c(=O)cc(COC(=O)c3ccccc3C)nc2s1,inactive: 1.86%
5,COc1cc(NC(=O)C2=CC(c3ccco3)=NS(=O)(=O)N2C)cc(OC)c1OC,inactive: 2.05%
6,O=C(COc1ccc(F)cc1)Nc1ccccc1C(=O)OCc1cc(=O)n2ccsc2n1,inactive: 0%
7,CCOC(=O)c1[nH]c2c(c1Cc1ccccc1OC)C(=O)CC(c1ccccc1)C2 (stereo not given),inactive: -11.1%
8,CCCCn1c(=O)c2oc3ccccc3c2n(Cc2ccccc2C)c1=O,inactive: -2.36%
9,Cc1nc(-c2ccccc2)sc1CCNC(=O)C(=O)Nc1ccc(F)c(Cl)c1,inactive: -9.3%
10,NC(=O)c1ccccc1NC(=O)CN1c2ccccc2S(=O)(=O)c2ccccc21,inactive: -3.38%
11,COC(=O)c1c(NC(=O)COc2ccc(Cl)cc2)sc(C)c1C,inactive: 3.12%
12,COCc1cc(C)nc2c1C(=O)NC(c1ccc(Br)cc1)N2Cc1ccccc1 (stereo not given),inactive: 3.22%
13,COc1cccc(N2CCN(C(=O)Cn3nc(C)n4c(cc5c(OC)cccc54)c3=O)CC2)c1,inactive: -1.93%
14,CCc1ccc(-n2nnc(-c3nc(-c4ccc(C)cc4)no3)c2N)cc1,inactive: -10.6%
15,COc1cc(Cl)c(C)cc1NC(=O)Cn1c2ncccc2c(=O)n1-c1ccccc1,inactive: -1.25%
16,COc1ccc(Cl)cc1C(=O)NCc1nnnn1-c1ccccc1,inactive: 0%
17,O=C(Nc1sc2c(c1C(=O)NCc1ccccc1)CCCC2)c1cc(=O)c2ccccc2o1,inactive: 1.57%
18,CCc1ccc(NC(=O)C(=O)NCC(c2cccnc2)N2CCc3ccccc3C2)cc1 (stereo not given),inactive: 6.92%
19,O=C(NCc1ccc(Cl)cc1)C1CCN(c2ncnc3c2nc2n3CCCCC2)CC1,inactive: -0.407%
20,CCc1ccc(NC(=O)CSc2nc3c(c(=O)[nH]2)CN(Cc2ccc(C)cc2)CC3)cc1,inactive: 1.59%
21,CCOc1ccccc1C(=O)NCC(c1cccs1)S(=O)(=O)c1ccc(F)c(C)c1 (stereo not given),inactive: -10.4%
22,CC1CCN(C(=O)Cn2cc(SCC(=O)Nc3ccccc3)c3ccccc32)CC1,inactive: 0%
23,COc1cccc(-c2nc(SCC(=O)NCc3ccco3)c3c(=O)n(C)c(=O)n(C)c3n2)c1,inactive: 5.4%
24,COc1ccc(Cn2c(=O)n(-c3ccc(OC)cc3)c(=O)c3c2c2cc(OC)ccc2n3C)cc1,inactive: 0.224%

row,Structure (SMILES),"activity change, negative = inhibition"
1,CCN(CC)S(=O)(=O)c1ccc2c(c1)c(=O)c(C(=O)NCc1ccccc1Cl)cn2C,inactive: -8.37%
2,COc1ccc(-c2cc(C)no2)cc1S(=O)(=O)NCc1ccco1,inactive: 0%
3,COc1cc(NC(=O)c2c3c(nc4ccccc24)C(=O)N(C2CCCCC2)C3)cc(OC)c1,inactive: -6.52%
4,CCOC(=O)c1c(-c2ccc(C)cc2)csc1NC(=O)c1cc(=O)c2cc(C)cc(C)c2o1,inactive: 0.353%
5,O=C(CSc1c2c(nc3cc(Cl)ccc13)CCCC2)N1CCN(c2ccccc2)CC1,inactive: -27.3%
6,Cc1ccc(S(=O)(=O)Cc2nc(-c3ccc(C(=O)NCc4ccccc4C)cc3)oc2C)cc1,inactive: -1.56%
7,COc1ccc(Cn2ccn(Cc3cccc(Cl)c3)c(=O)c2=O)cc1,inactive: 8.65%
8,CC(=O)c1ccc(NC(=O)C2=CC(c3ccc(C)cc3)=NS(=O)(=O)N2C)cc1,inactive: -2.67%
9,CCCn1cc(S(=O)(=O)c2ccc(OC)cc2)c(=O)c2cc(F)c(N3CCCC(C)C3)cc21 (stereo not given),inactive: -1.15%
10,O=C(COc1ccccc1F)Nc1c(C(=O)Nc2cccc(F)c2)oc2ccccc12,inactive: -4.16%
11,Cc1ccc(C(=O)Nc2nc3nc(-c4ccccc4)cc(=O)n3[nH]2)cc1,inactive: -0.949%
12,CCCCCOC(=O)CSc1nc2sc3c(c2c(=O)n1-c1ccccc1)CC(C)(CC)OC3 (stereo not given),inactive: 4.72%
13,O=C(Nc1cc(-c2ccccc2F)nn1-c1ccccc1)c1ccccc1Br,inactive: -11.7%
14,Cc1ccc(CNC(=O)CCS(=O)(=O)c2cc3c(cc2C)NC(=O)CO3)cc1,inactive: 5.9%
15,O=C(CSc1nc2c(oc3ccccc32)c(=O)n1Cc1ccco1)Nc1ccccc1,inactive: 0.208%
16,CCCSC1=NC2(CCN(C(=O)NC3CCCCC3)CC2)N=C1c1ccc(Cl)cc1,inactive: -2.82%
17,Cc1ccc(CN2CCCN(Cc3c(C)cc(C)cc3C)S2(=O)=O)cc1,inactive: -11.8%
18,Cc1cccc(CSc2nc(-c3cccc(C)c3)nc3c2Cc2c(CO)cnc(C)c2O3)c1,inactive: -2.24%
19,CC(C)(C)C(=O)OCc1cc(=O)n2nc(C3CC3)sc2n1,inactive: -0.922%
20,COc1ccc(C)cc1NC(=O)COCc1cc(-c2ccc(F)cc2)on1,inactive: 2.47%
21,Cc1ccc(N2CCN(S(=O)(=O)c3c(C)[nH]c(=O)[nH]c3=O)CC2C)cc1 (stereo not given),inactive: 1.35%
22,Cc1nn(Cc2noc(C(=O)NC(C)c3ccccc3)n2)c(C)c1Br (stereo not given),inactive: -1.03%
23,COc1cc(Cl)c(C)cc1NC(=O)Cn1cc(S(=O)(=O)N2CCC(C)CC2)c2ccccc2c1=O,inactive: -11.4%
24,CCCN(CCC)c1nn2c(=O)c(C(=O)NCc3cc(Br)ccc3OC)cnc2s1,inactive: -8.12%

row,Structure (SMILES),"activity change, negative = inhibition"
1,CCOC(=O)c1cc(-c2ccccc2)n(CC(=O)Nc2ccc(CC)cc2)c1C,inactive: -6.32%
2,COc1ccc(OC)c(CCNC(=O)CCn2c(=O)c3cccn3c3ccc(F)cc32)c1,inactive: -19.3%
3,Cc1cccc(S(=O)(=O)c2cn(C)c3cc(N4CCN(c5ccc(F)cc5)CC4)c(F)cc3c2=O)c1,inactive: -8.71%
4,CC(C)c1ccc(NC(=O)CSC2=Nc3ccccc3C3=NC(CCC(=O)NCc4ccco4)C(=O)N23)cc1 (stereo not given),inactive: -3.43%
5,CCCCNC(=O)c1ccccc1NC(=O)CN(c1ccccc1)S(=O)(=O)N(C)C,inactive: 0.209%
6,O=C(CSc1nc(=O)n(Cc2ccco2)c2c1CCC2)Nc1ccccc1C(F)(F)F,inactive: -6.47%
7,Cc1ccc2c(=O)cc(C(=O)Nc3ccc(S(=O)(=O)N4CCCCCC4)cc3)oc2c1,inactive: 1.96%
8,CCc1nnc(SCC(=O)N(CC)c2ccccc2)c2cc3oc(C)cc3n12,inactive: 3.78%
9,CC(=O)N1CCCc2cc(S(=O)(=O)N3CCC(C(=O)NCc4ccccc4)CC3)ccc21,inactive: -2.15%
10,Cc1ccc(Cl)cc1N1CCN(C(=O)c2cc(S(=O)(=O)N3CCCC3)c[nH]2)CC1,inactive: 0%
11,CCOC(=O)CNC(c1ccccc1)c1cc(Br)ccc1NC(=O)c1cccc(Cl)c1 (stereo not given),inactive: -9.95%
12,CCc1ccc(NC(=O)C2CCCN(S(=O)(=O)c3ccc(F)cc3)C2)cc1 (stereo not given),inactive: 3.51%
13,CCN(Cc1ccccc1)C(=O)Cn1c(=O)n(-c2ccc(Cl)cc2)c(=O)c2c(C)c(C)sc21,inactive: -6.76%
14,Cc1ccc(CN2CCSc3ccc(C(=O)Nc4ccc(C)cc4)cc32)cc1,inactive: -11.9%
15,Cc1ccc(Cn2c(=O)n(Cc3ccco3)c(=O)c3oc4ccccc4c32)cc1,inactive: -13.3%
16,CCOc1ccc(OCC)c(NC(=O)c2cnc(SC)nc2-c2ccccc2)c1,inactive: -7.65%
17,Cc1ccc(C)c(Cn2c(=O)n(-c3ccc(Cl)cc3)c(=O)c3c(C)c(C)sc32)c1,inactive: -0.923%
18,COc1ccc(CC(=O)NCC(c2ccc(Cl)cc2)N2CCOCC2)cc1 (stereo not given),inactive: -0.332%
19,CN(C)S(=O)(=O)c1ccc2c(c1)nnn2CCNC(=O)Nc1ccc(Cl)cc1,inactive: 10.3%
20,Cc1ccc(S(=O)(=O)c2nnn3c2nc(NC2CCCCC2)c2sccc23)cc1,inactive: -7.59%
21,Cc1ccc(Cc2cn3cc(-c4ccccc4)nc3s2)cc1,inactive: -4.02%
22,Cc1ccc(C)c(Oc2nc3c(c(=O)n(C)c(=O)n3C)n2Cc2ccccc2)c1,inactive: -29%
23,Cc1cc(-c2ccc(C)c(S(=O)(=O)NCC3CCN(Cc4ccccc4F)CC3)c2)on1,inactive: -15.1%
